Assay results from the supplement of paper PMC11417369.
± gives the standard deviation of the averaged measurements. Some of the results follow.

Tested on: PfAP2-EXP AP2 domain (GST-tagged)
Assay: gcPBM binding intensity (ln(normalized median fluorescence intensity)); higher = stronger DNA binding
In short: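 Binding of GST-tagged P. falciparum DNA-binding domains, expressed in E. coli and used at about 25 μg on average, was carried out for 1 h in 1× PBS containing 1% milk, 0.2 mg/ml BSA, 0.5% salmon testes DNA and 0.03% Triton X-100. The target was an Agilent 4 × 180k array of primer-extended double-stranded 36-bp intergenic genomic probes plus negative controls, read with Alexa488 anti-GST antibody at 488 nm. Binding intensity is the highest Masliner-normalised natural-log median intensity across replicate spots of either probe orientation.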

Sequence	gcPBM binding intensity (ln)
ATATTTATATATATCATACACACTAATATGTATATT [CACACA_site3409]	8.35 ± 0.41
TACCATATTTCTTCAAGTACGCATTATGTTAAAAAG [XGTACX_site345]	8.78 ± 0.37
TACATATATTTTTATACATGCATAACTTAGGACTTT [TGCATGCA_site113]	8.64 ± 0.3
AAAATATTTTTATAATGTACATATAGTTGTATTTGT [XGTACX_site8724]	8.8 ± 0.3
ATATATATTTAACAATGTACTTATTCAGAGAATAAT [XGTACX_site574]	8.25 ± 0.33
ATTTTTATTCAGTTCACACACGCTTTAATATTATAT [CACACA_site3465]	9 ± 0.49
CCCTTAATATAAAGCACACATATATATAATATATAT [CACACA_site4439]	8.81 ± 0.26
AAGTTGAAATAATGTGCACACATTTTTTTTTTTTTT [CACACA_site3368]	8.46 ± 0.21
ATTAATAAAAAATTTTAAAAAATAAATAAAATAAAA [TGCATGCA_negctrl_site113]	7.99 ± 0.23
ATAATAAATAAAATAACACACATATATAAATATATA [CACACA_site170]	8.4 ± 0.18
ATTATGTGTCCACATGTAAGCTATCTTACTTATATA [CACACA_negctrl_site1227]	8.62 ± 0.28
ATAGTTACACAATGGTGTACAAGTCAATATATTTCT [XGTACX_site4614]	8.34 ± 0.34
TACAAAAAAATAAAAAAAATTAAATAAATAAATATA [CACACA_negctrl_site45]	8.17 ± 0.37
CATATTTGTGGACACACACACATATTTATATATATA [CACACA_site5887]	8.885 ± 0.035
ACTAAAAAATATATATGTACATAATAATATATTATT [XGTACX_site1260]	8.46 ± 0.3
ATTTATACTTATGTATGTACATATATACATATGTAT [XGTACX_site3979]	8.52 ± 0.45
AAAAAAAAAAAAAAAAAAAACGAAAAACATCAAAGA [TGCATGCA_negctrl_site78]	8.75 ± 0.11
TATCCTTATATTTGCACACACACACTAGAAAATGAA [CACACA_site4714]	9.025 ± 0.078
ATAATAAAATAACTAGTGCATATTCAAAGGATTCAG	8.74 ± 0.26

Sequence	gcPBM binding intensity (ln)
AATGTATAAATCCATACACACATAAATTTTAATAAT [CACACA_site2363]	8.32 ± 0.47
AAAAAAATTAAAAATTAAAATTAAAAATAATATATA [GTGCAC_negctrl_site466]	8.12 ± 0.57
TTTATATTTATGATGGGTACACAAAATTTTACCCAT [XGTACX_site1504]	8.7 ± 0.28
TTCATAAAATGTGTCTGTACGTAAATGTATTACACT [XGTACX_site3179]	8.54 ± 0.37
CTGTCTGCAGATATGGTGCATTTGTAAGATCTTACA [GTGCAC_site9870]	8.99 ± 0.24
TAATTTCTTTAGGGGGTGCTTTTATAGTTTTTATTA	10.4 ± 0.54
ATATATATATATATATGTACACATAAAAAGAAAGAA [XGTACX_site1603]	10.2 ± 0.21
AACATTATATATTGCAGTACTCCCATATGTTGATAA [XGTACX_site3119]	8.97 ± 0.38
TATATACCTATATACACACACATATATTATAGATAT [CACACA_site6266]	8.35 ± 0.34
TTTAGTTGTGAGAATTGTACATATTTTCCTTTTACC [XGTACX_site7291]	8.59 ± 0.49
TATATATATGAACAATGTACGTATAATATTTTTATT [XGTACX_site7561]	8.55 ± 0.37
GATCTATACTATAATACACACATTTGATGAATGTAA [CACACA_site6163]	8.44 ± 0.34
GCAATTTTTTTTAAGAGTACTAATATATTATAGTGG [XGTACX_site7316]	8.39 ± 0.35
TTTTTTTAATAGTGTGCACACAATATACAGAAAAAA [CACACA_site8399]	9.08 ± 0.18
TTTTTTTTCATTTTATGTACACATAATTTAATATAT [XGTACX_site5768]	8.71 ± 0.27
CATAATTTAAAAAAGGTGCAAAATGGATAATATATA [GTGCAC_site9657]	9.33 ± 0.16
CATACATACATACATACATGCATACATACATACATA [TGCATGCA_site218]	9.3 ± 0.26
ATATATATATATATATGTACATATGTTTGTTTCCGC [XGTACX_site5167]	10.3 ± 0.21
ATATACATATATATATGTACTTATTTATTTATTTAT [XGTACX_site2532]	8.56 ± 0.26

Sequence	gcPBM binding intensity (ln)
AAAAAGTGACTCCTTACACACTTTACATAATTTAGG [CACACA_site8176]	8.54 ± 0.43
TGAAAAAAAAAATACACACACGAGTTGTTATACATA [CACACA_site7486]	8.38 ± 0.46
ATTAAAAAAATTGGCACACATAAAAATATATAAAAA [CACACA_site2748]	8.77 ± 0.33
GTTTTTAATGTTTTGACATGCAATATTAAAAATAAT [TGCATGCA_site174]	8.8 ± 0.33
AACAGATATGAATAGAAAAAAAAAAATGGCCCATAT [TGCATGCA_negctrl_site443]	8.4 ± 0.52
TATAATAATAAAAACACACACGTTGATTGTATTAGC [CACACA_site5336]	8.47 ± 0.55
TATAATGATAATAATAGTACACATTAGAACGGGAGG [XGTACX_site2563]	8.98 ± 0.23
TCTTTTTTTTATTATATCATTGAAATGTTAAAACGA [XGTACX_negctrl_site473]	8.43 ± 0.42
CCTATTATTTCTAAAACACACAAAAATATAAAAGAA [CACACA_site2708]	8.69 ± 0.53
ATAATATTATTTAAAAGTACTAACAAAAGAATATTA [XGTACX_site4989]	8.61 ± 0.39
TTTTGATAGAAGTGTTCTAGGAATTCAACTGTAATA [GTGCAC_negctrl_site585]	8.37 ± 0.49
ATTAAAAAAAATATATATGTATAAAACAAGCAAAAT [XGTACX_negctrl_site474]	8.82 ± 0.49
GACCACTTTAGGATTTGTACACATATTATATATGCA [XGTACX_site6579]	8.84 ± 0.4
TACACAAACAAACACACACACACACCCCCACAAAAA [CACACA_site2428]	9.65 ± 0.51
ATAAAAAAAAATAACACACAGACATAAGAATAAATA [CACACA_site4162]	8.84 ± 0.5
TAGCCATTTTTATATTGTACTTATATAATCACATTT [XGTACX_site4407]	8.72 ± 0.4
ATATAAGAAAAGCACACACACACAAAAAAAAAAAAA [CACACA_site2827]	8.41 ± 0.65
ATTCAAAAGATGTATACACACATGTGTATAATATAA [CACACA_site7197]	8.4 ± 0.26
